A value given as a limit tells only on which side of the number the result lay.

The subject of the experiment is human normal breast cell line MCF-10A. As to the kind of experiment: cells. As to conditions: 72 h, read-out: IC50 MCF-10A.
Broadly, the IC50 is the concentration at which inhibition is half-maximal. On to `Cc1ccc2occ(CO)c(=O)c2c1` [Compound 15], for which the IC50 was over 40 µM. Consider `COc1ccc2occ(CO)c(=O)c2c1` [Compound 16], for which the IC50 is over 40 µM. Next, `Cc1ccc2occ(CN)c(=O)c2c1` [Compound 19]: over 40 µM; `COc1ccc2occ(CN)c(=O)c2c1` [Compound 20]: over 40 µM.

For the origin of these results see PMC8725944, “Design and synthesis of chromone-nitrogen mustard derivatives and evaluation of anti-breast cancer activity” (Journal of Enzyme Inhibition and Medicinal Chemistry, 2021).
